#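 Compound exposure: 48 hours, 5 concentrations, 96-well plates. GI50 = concentration required for 50% inhibition of growth.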 Activity calls are given as the source filed them. No stated cut-off is given here; in the data, active = GI50 up to about 1.1 µM and inactive = higher.
# Tested on: NCI-H322M
# Assay: NCI anticancer screen, dose series, 48 h
row,SMILES,GI50
1,O=C(CCc1ccc(O)c(O)c1)NCCc1ccccc1,inactive: > 100 µM
2,O=C(O)CCNS(=O)(=O)c1ccc2ccccc2c1,inactive: > 100 µM
3,O=C1C(F)=CC(COC(c2ccccc2)(c2ccccc2)c2ccccc2)OC1n1cc(F)c(=O)[nH]c1=O (centres undefined),inactive: 5.19 µM
4,CN(C)CCNC(=O)c1cccc2nc3c(ccc4ccccc43)nc12,inactive: 3.02 µM
5,Fc1ccc(NC(=S)SCc2ccc3c(c2)OCO3)cc1F,inactive: 20.1 µM
6,CC1OC(n2ncc(=O)[nH]c2=O)C=CC1=O (centres undefined),inactive: > 100 µM
7,Nn1c(-c2cccc(Cl)c2)nc2ccccc2c1=O,inactive: > 100 µM
8,CCCCOC(=O)C(NC(C(=O)OCCCC)c1cc(C(C)(C)C)c(O)c(C(C)(C)C)c1)c1cc(C(C)(C)C)c(O)c(C(C)(C)C)c1 (centres undefined),inactive: > 100 µM
9,CC(=O)CC(=O)OC1CC(C)CCC1C(C)C (centres undefined),inactive: 93.8 µM
10,CC(=O)NC(CCCN(Cc1ccccc1)C(=O)NCCCl)C(=O)NCc1ccccc1 (centres undefined),inactive: > 100 µM
11,Clc1ccc(SC(/C=C/NNC2=NN=C(c3ccccc3)C(c3ccccc3)N2)c2ccccc2)cc1 (centres undefined),inactive: 31.2 µM
12,COc1ccc(N[S+]([O-])c2ccc(Cl)cc2)cc1 (centres undefined),inactive: 59.4 µM
13,Cc1ccc([S+]([O-])/C=C(\NC(=O)OCc2ccccc2)C(F)(F)F)cc1 (centres undefined),inactive: 45.7 µM
14,COC(=O)C1=C([C@H]2COC(C)(C)O2)[C@H]2C[C@@H]1[C@@H]1OC(C)(C)O[C@@H]12,inactive: > 100 µM
15,O=C(O)CSc1nnc(-c2ccco2)[nH]1,inactive: > 100 µM
16,CN(C(=O)C12C3C4C1C1C2C3C41C(=O)N(C)C(C)(C)C)C(C)(C)C (centres undefined),inactive: > 50 µM
17,COc1ccc(/N=N/C(=NNC(=O)c2ccc(C)cc2)c2ccc(N(C)C)cc2)cc1,inactive: > 62.1 µM
18,CC(=O)Oc1cccc2c(/C=N/NC(N)=S)ncc(C)c12,active: 0.522 µM
19,C[C@]12CC[C@@H]3c4cc(Br)c(O)c(Br)c4CC[C@H]3[C@@H]1CCC2=O,inactive: 19.2 µM
20,CC(CCC#N)(CCC#N)C(=O)CC(O)(C(F)(F)F)C(F)(F)F,inactive: 20.8 µM
21,O=S1(=O)c2cc(S(=O)(=O)n3ccnc3)ccc2NC2=NCCCN21,inactive: 70.5 µM

row,SMILES,GI50
1,C/C(=N/OC(=O)c1cccc2c(=O)c3ccccc3[nH]c12)[C@H]1CC[C@H]2[C@@H]3CCC4=C/C(=N/OC(=O)c5cccc6c(=O)c7ccccc7[nH]c56)CC[C@]4(C)[C@H]3CC[C@]12C,inactive: 19.4 µM
2,S=C1SSC2N=CC=CC12 (centres undefined),inactive: > 100 µM
3,N#Cc1cn(-c2c3ccccc3nc3ccccc23)c(=O)[nH]c1=O,inactive: 9.29 µM
4,CCC(C(=O)C(=O)C(CC)P1(=O)OC(C)(C)CN1C(C)(C)C)P1(=O)OC(C)(C)CN1C(C)(C)C (centres undefined),inactive: > 100 µM
5,CC(C)CCC[C@@H](C)[C@H]1CC[C@H]2C3=C[C@H](OS(=O)(=O)O)[C@@]4(O)C[C@@H](O)CC[C@]4(C)[C@@]3(O)CC[C@]12C,inactive: > 100 µM
6,CCCCCCCCCCCCOP(=O)(O)OCC(N)C(=O)O (centres undefined),inactive: 33.9 µM
7,COc1ccc(OC)c2sc(N3C(=O)/C(=C/c4cccc([N+](=O)[O-])c4)N=C3c3ccccc3)nc12,inactive: > 100 µM
8,O=C1N/C(=N/N=C/C(O)C(O)C(O)C(O)CO)N/C1=C\c1cccs1 (centres undefined),inactive: > 100 µM
9,Nc1ncc(Cl)c(NCC2(CO)CC(CCc3ccccc3)C2)n1 (centres undefined),inactive: > 100 µM
10,COc1ccccc1/N=C(\N)N/N=C/c1c[nH]c2ccccc12,inactive: 10.6 µM
11,CC(C)(C)OC(=O)N1C(=O)C2CCCC21 (centres undefined),inactive: > 100 µM
12,CC1=CC2C(=O)N(c3ccccc3)C(=O)C2CC1n1[nH]c(=O)n(Cc2ccccc2)c1=O (centres undefined),inactive: > 100 µM
13,O=C(Nc1ccc2[nH]c(C(=O)N3CC(CCl)c4ccc([N+](=O)[O-])cc43)cc2c1)c1cc2ccccc2o1 (centres undefined),inactive: > 1100 µM
14,COc1cc(Cc2nccc3cc(OC)c(OC)cc23)c(C(C)=O)cc1OC,inactive: 56.2 µM
15,O=S(=O)(SC1=NCCN1)c1cccc2ccccc12,inactive: 58.3 µM
16,CNc1cc(OCc2ccccc2)c(OC)cc1C(=O)N1CCC[C@H]1CO,inactive: > 100 µM
17,Cc1cc(Br)ccc1NC1=CC(=O)C(=O)c2ccccc21,inactive: 59.7 µM
18,Cc1c(/N=N/c2ccccc2)c(-c2ccccc2)n(C2OC(CO)C(O)C(O)C2O)c(=S)c1C#N (centres undefined),inactive: 5.16 µM
19,Cc1ccc2c(c1)-c1c3c(nn1C)-c1ccccc1SC3O2 (centres undefined),inactive: > 100 µM
20,O=c1[nH]c(Br)nc2[nH]nnc12,inactive: > 100 µM
21,CCOC(=O)c1[nH]c2ccccc2c1C(=O)C[C@H](NC(=O)C(F)(F)F)C(=O)OC,inactive: > 100 µM

row,SMILES,GI50
1,COc1cc(/C=c2/c3ccccc3n3c2cc(-c2ccccc2)[n+]3C)cc(OC)c1OC,inactive: 9.16 µM
2,C/C1=C\CC[C@@]2(C)O[C@@H]2[C@H]2OC(=O)C(C)C2C[C@H]1O (some centres undefined),inactive: > 100 µM
3,Cc1cccc(NC(=O)/C=C/c2ccc(N(CCC#N)CCC#N)cc2C)c1,inactive: > 100 µM
4,CCOC(=O)CC(NC(=O)c1nc[nH]c1[N+](=O)[O-])C(=O)OCC (centres undefined),inactive: > 100 µM
5,C=C(C)C12OC3(c4ccccc4)OC1C1C4OC4(CO)C(O)C4(O)C(=O)C(C)=CC4C1(O3)C(C)C2OC(=O)/C=C/C=C/c1ccccc1 (centres undefined),active: 0.228 µM
6,O=C(CC(c1ccccc1)C(C(=O)c1ccncc1)C(CC(=O)c1ccncc1)c1ccccc1)c1ccncc1 (centres undefined),inactive: > 100 µM
7,CCO/N=C(/N)c1ncn(Cc2ccccc2)c1NCC(OCC)OCC,inactive: > 100 µM
8,CC1=C(C#N)C(=O)CC(c2ccc(Cl)cc2)N(C)N1 (centres undefined),inactive: > 100 µM
9,CC(=O)C1COC(O)C1C (centres undefined),inactive: 29.4 µM
10,N#Cc1c(-c2ccccc2)[nH]c2ccccc2c1=O,inactive: > 100 µM
11,CCOC(=O)c1c(C)n(Cc2ccc(Cl)cc2Cl)c2c1cc(O)c1[nH]c3c(c12)CCCC3,inactive: 19 µM
12,O=C(CC1(O)C(=O)Nc2c(Cl)cc(Cl)cc21)c1ccc(Br)cc1 (centres undefined),inactive: 16.3 µM
13,N#CCCNCCN(CCN(C(=O)Nc1ccccc1)c1ccccc1)C(=O)Nc1ccccc1,inactive: 69.3 µM
14,O=C(O)C(Cc1ccccc1)N1C(=O)N/C(=C\c2ccc(F)cc2)C1=O (centres undefined),inactive: 30.8 µM
15,CC(=O)NC1C(OCc2ccccc2)OC(CO)C(O)C1OC(C)C(=O)NC(C(=O)NC(CCC(=O)NCCCC(=O)Nc1ccc2c(c1)CN1C(=O)c3ccccc3C1=N2)C(N)=O)C(C)C (centres undefined),inactive: > 100 µM
16,COC(=O)C1=CC2OC13CC1CCC3(C2=O)C1(C)C (centres undefined),inactive: 15.8 µM
17,O=C1NC(=O)C2(CCC(O)C2)c2cc[n+]([O-])cc21 (centres undefined),inactive: > 100 µM
18,FC(F)(F)c1ccccc1/C=N/C12CC3CC(CC(C3)C1)C2,inactive: > 100 µM
19,CCSc1nn(-c2c3ccccc3nc3ccccc23)c(=S)s1,inactive: > 100 µM
20,Cc1cc2c(=O)cc(-c3ccc(C(F)(F)F)cc3)oc2c(C(=O)O)c1C,inactive: > 100 µM
21,CC1=C(C(=O)Nc2ccccc2C)C(c2ccc(Cl)cc2)C(C(=O)Nc2ccccc2C)=C(C)N1,inactive: > 100 µM

row,SMILES,GI50
1,O=C1CCC(=O)N1n1c(Cc2ccc(Cl)cc2)n[nH]c1=O,inactive: > 100 µM
2,CC1=C(CCC(C)CO)O[C@H]2C[C@H]3[C@@H]4CC[C@H]5C[C@@H](O)CC[C@]5(C)[C@H]4CC(=O)[C@]3(C)[C@@H]12 (some centres undefined),inactive: 26.3 µM
3,COc1ccc(COC2CC(OC)OC(C)C2OC(=O)c2ccccc2)cc1 (centres undefined),inactive: > 100 µM
4,CCOC(=O)C1=C(Cl)c2cccnc2C1=O,inactive: > 100 µM
5,Cc1ccccc1C1OC(=O)c2ccccc21 (centres undefined),inactive: > 100 µM
6,COC[C@@H](C[C@H]1O[C@@](O)([C@H](O)[C@@H]2C[C@H](OC)[C@@H](O)CC/C=C(C)/C=C/[C@@H](O[C@@H]3O[C@@H](C)[C@H](OC)[C@@H](O)[C@@H]3O)[C@H](C)/C=C(C)/C=C(C)/C=C(\C)C(=O)O2)[C@H](C)[C@@H](O)[C@H]1C)O[C@H]1C[C@](C)(O)[C@@H](O[C@H]2C[C@@H](OC)[C@H](O)[C@@H](C)O2)C(C)O1 (some centres undefined),inactive: > 100 µM
7,CCCCCCCCCCC(O)C1CCC(C2CCC(C(O)CCCCC(O)CCCCCC(O)CC3=CC(C)OC3=O)O2)O1 (centres undefined),inactive: > 25 µM
8,O=C1C=C2CC[C@H]3[C@@H]4CC[C@H](Oc5c6ccccc6nc6ccccc56)[C@H]4CC[C@@H]3[C@H]2CC1,inactive: 55.8 µM
9,CCOC(=O)C(O)(NC(=O)c1ccc(F)cc1)C(F)(F)F (centres undefined),inactive: > 100 µM
10,O=c1[nH]nc(Cc2ccccc2)n1/N=C/c1ccc(/C=N/n2c(Cc3ccccc3)n[nH]c2=O)cc1,inactive: > 100 µM
11,Cc1ccc(-n2c(N)c(C#N)c3[nH]nc(N)c3c2=O)cc1,inactive: > 100 µM
12,O=c1c(-c2ccc3c(c2)OCO3)coc2c3c(ccc12)OCO3,inactive: 45 µM
13,CCOC(=O)c1nc2ccccc2n(CC)c1=O,inactive: > 100 µM
14,O=C(O)CCC(=O)OCN1C(=O)C2C3C=CC(C2C1=O)C1C2C(=O)N(COC(=O)CCC(=O)O)C(=O)C2C31 (centres undefined),inactive: > 100 µM
15,CN(C)CC[N+](C)(C)[BH2-]C(O)O,inactive: > 100 µM
16,CC1OC2=N[C@@H]1C(=O)N[C@@H](C(C)C)C1=N[C@H](C(=O)N[C@@H](C(C)C)C3=N[C@H](C(=O)N[C@@H](C(C)C)C4=N[C@H](C(=O)N[C@H]2C(C)C)C(C)O4)C(C)O3)C(C)O1 (some centres undefined),inactive: > 10 µM
17,OC[C@H]1N[C@H](CO)[C@@H](O)[C@H]1O,inactive: > 100 µM
18,COc1cc2c(c(OC)c1)[C@H](C)N(Cc1ccccc1)C(C)C2 (some centres undefined),inactive: 87.7 µM
19,COC(=O)CCC(C)[C@H]1CCC2C3C(C[C@H](OC(C)=O)[C@@]21C)[C@@]1(C)CCC2(C[C@H]1C[C@H]3OC(C)=O)OOC1(CCC(C)CC1)OO2 (some centres undefined),inactive: > 100 µM
20,COc1cc2cc(C(=O)N3CC(CCl)c4ccc(N(C)C)cc43)[nH]c2c(OC)c1OC (centres undefined),active: 0.17 µM
21,C1CN1c1nc(N2CC2)nc(N2CC2)n1,inactive: 18.9 µM

# Source: ChEMBL document CHEMBL1201862, “PubChem BioAssay data set” (2004)
